Measurements as given in the supplement of paper PMC8728848.
This is one part of the list.

How the values were obtained:
Experiment in all cases: glycan array binding signal (z-score within array); higher = stronger binding
Details in all cases: glycan notation: IUPAC condensed, linker removed
[1] = target: GlcNAc(b1-3)Gal(b1-3)GalNAc
Summary of the method: (§1)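 The Consortium for Functional Glycomics database supplied 3228 glycan arrays, of which those lacking an available protein sequence were dropped. The binding signal, a within-array Z-score, was averaged across arrays of the same protein sequence and across linkers. Negative scores can be read as non-binding.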

GlcNAc(b1-3)Gal(b1-4)Glc = target: GlcNAc(b1-3)Gal(b1-4)Glc
Summary of the method: as §1

[2] = target: GlcNAc(b1-3)Gal(b1-4)GlcNAc
Summary of the method: as §1

[3] = target: GlcNAc(b1-3)Gal(b1-4)GlcNAc(b1-3)Gal(b1-4)GlcNAc
Summary of the method: as §1

GlcNAc(b1-3)GalNAc = target: GlcNAc(b1-3)GalNAc
Summary of the method: as §1

GlcNAc(b1-3)Man = target: GlcNAc(b1-3)Man
Summary of the method: as §1

[4] = target: GlcNAc(b1-3)[GlcNAc(b1-4)][GlcNAc(b1-6)]GlcNAc
Summary of the method: as §1

[5] = target: GlcNAc(b1-3)[GlcNAc(b1-6)]Gal(b1-4)GlcNAc
Summary of the method: as §1

[6] = target: GlcNAc(b1-3)[GlcNAc(b1-6)]GalNAc
Summary of the method: as §1

[7] = target: GlcNAc(b1-4)Gal(b1-4)GlcNAc
Summary of the method: as §1

GlcNAc(b1-4)GlcNAc = target: GlcNAc(b1-4)GlcNAc
Summary of the method: as §1

[8] = target: GlcNAc(b1-4)GlcNAc(b1-4)GlcNAc
Summary of the method: as §1

[9] = target: GlcNAc(b1-4)GlcNAc(b1-4)GlcNAc(b1-4)GlcNAc(b1-4)GlcNAc
Summary of the method: as §1

[10] = target: GlcNAc(b1-4)GlcNAc(b1-4)GlcNAc(b1-4)GlcNAc(b1-4)GlcNAc(b1-4)GlcNAc
Summary of the method: as §1

[11] = target: GlcNAc(b1-4)[GlcNAc(b1-6)]GalNAc
Summary of the method: as §1

[12] = target: GlcNAc(b1-6)Gal(b1-4)GlcNAc
Summary of the method: as §1

GlcNAc(b1-6)GalNAc = target: GlcNAc(b1-6)GalNAc
Summary of the method: as §1

GlcNAc3Prop(b1-4)GlcNAc = target: GlcNAc3Prop(b1-4)GlcNAc
Summary of the method: as §1

[13] = target: GlcNAc6S(b1-3)Gal(b1-4)GlcNAc
Summary of the method: as §1

Kdn(a2-3)Gal(b1-3)GalNAc = target: Kdn(a2-3)Gal(b1-3)GalNAc
Summary of the method: as §1

Kdn(a2-3)Gal(b1-3)GlcNAc = target: Kdn(a2-3)Gal(b1-3)GlcNAc
Summary of the method: as §1

Kdn(a2-3)Gal(b1-4)Glc = target: Kdn(a2-3)Gal(b1-4)Glc
Summary of the method: as §1

Kdn(a2-3)Gal(b1-4)GlcNAc = target: Kdn(a2-3)Gal(b1-4)GlcNAc
Summary of the method: as §1

[14] = target: Kdn(a2-3)Gal(b1-4)[Fuc(a1-3)]GlcNAc
Summary of the method: as §1

Kdn(a2-6)Gal(b1-4)GlcNAc = target: Kdn(a2-6)Gal(b1-4)GlcNAc
Summary of the method: as §1

[15] = target: Man(a1-2)Man(a1-2)Man(a1-3)Man
Summary of the method: as §1

[16] = target: Man(a1-2)Man(a1-2)Man(a1-6)[Man(a1-3)]Man
Summary of the method: as §1

Man(a1-2)Man(a1-3)Man = target: Man(a1-2)Man(a1-3)Man
Summary of the method: as §1

[17] = target: Man(a1-2)Man(a1-3)[Man(a1-2)Man(a1-6)]Man
Summary of the method: as §1

[18] = target: Man(a1-2)Man(a1-3)[Man(a1-2)Man(a1-6)]Man(a1-6)[Man(a1-2)Man(a1-2)Man(a1-3)]Man
Summary of the method: as §1

[19] = target: Man(a1-2)Man(a1-3)[Man(a1-2)Man(a1-6)]Man(a1-6)[Man(a1-2)Man(a1-2)Man(a1-3)]Man(b1-4)GlcNAc(b1-4)GlcNAc
Summary of the method: as §1

[20] = target: Man(a1-2)Man(a1-3)[Man(a1-6)]Man(a1-6)[Man(a1-2)Man(a1-3)]Man(b1-4)GlcNAc(b1-4)GlcNAc
Summary of the method: as §1

[21] = target: Man(a1-2)Man(a1-6)[Man(a1-3)]Man(a1-6)[Man(a1-2)Man(a1-2)Man(a1-3)]Man
Summary of the method: as §1

[22] = target: Man(a1-2)Man(a1-6)[Man(a1-3)]Man(a1-6)[Man(a1-2)Man(a1-2)Man(a1-3)]Man(b1-4)GlcNAc(b1-4)GlcNAc
Summary of the method: as §1

Man(a1-3)[Man(a1-6)]Man = target: Man(a1-3)[Man(a1-6)]Man
Summary of the method: as §1

[23] = target: Man(a1-3)[Man(a1-6)]Man(a1-6)[Man(a1-2)Man(a1-3)]Man(b1-4)GlcNAc(b1-4)GlcNAc
Summary of the method: as §1

[24] = target: Man(a1-3)[Man(a1-6)]Man(a1-6)[Man(a1-3)]Man
Summary of the method: as §1

[25] = target: Man(a1-3)[Man(a1-6)]Man(a1-6)[Man(a1-3)]Man(b1-4)GlcNAc(b1-4)GlcNAc
Summary of the method: as §1

[26] = target: Man(a1-3)[Man(a1-6)]Man(b1-4)GlcNAc(b1-4)GlcNAc
Summary of the method: as §1

Man(a1-6)Man = target: Man(a1-6)Man
Summary of the method: as §1

Man(b1-4)GlcNAc = target: Man(b1-4)GlcNAc
Summary of the method: as §1

Neu5Ac(a2-3)Gal = target: Neu5Ac(a2-3)Gal
Summary of the method: as §1

[27] = target: Neu5Ac(a2-3)Gal(b1-3)GalNAc
Summary of the method: as §1

B1: Galatrox (Botrops atrox), P0DM53 (protein)
chain: NNCPQDWLPMNGLCYKIFDELKAWKDAEMFCRKYKPGCHLASIILYGESPEWAEGHSEVWLGLWDKKKDFSWEWTDR
glycan array binding signal (z-score) [1]: -0.347 | glycan array binding signal (z-score) (GlcNAc(b1-3)Gal(b1-4)Glc): -0.357 | glycan array binding signal (z-score) [2]: -0.372 | glycan array binding signal (z-score) [3]: -0.259 | glycan array binding signal (z-score) (GlcNAc(b1-3)GalNAc): -0.375 | glycan array binding signal (z-score) (GlcNAc(b1-3)Man): -0.36 | glycan array binding signal (z-score) [4]: -0.347 | glycan array binding signal (z-score) [5]: -0.354 | glycan array binding signal (z-score) [6]: -0.367 | glycan array binding signal (z-score) [7]: -0.366 | glycan array binding signal (z-score) (GlcNAc(b1-4)GlcNAc): -0.367 | glycan array binding signal (z-score) [8]: -0.354 | glycan array binding signal (z-score) [9]: -0.373 | glycan array binding signal (z-score) [10]: -0.362 | glycan array binding signal (z-score) [11]: -0.376 | glycan array binding signal (z-score) [12]: 0.654 | glycan array binding signal (z-score) (GlcNAc(b1-6)GalNAc): -0.107 | glycan array binding signal (z-score) (GlcNAc3Prop(b1-4)GlcNAc): -0.371 | glycan array binding signal (z-score) [13]: 3.08 | glycan array binding signal (z-score) (Kdn(a2-3)Gal(b1-3)GalNAc): -0.329 | glycan array binding signal (z-score) (Kdn(a2-3)Gal(b1-3)GlcNAc): -0.351 | glycan array binding signal (z-score) (Kdn(a2-3)Gal(b1-4)Glc): -0.364 | glycan array binding signal (z-score) (Kdn(a2-3)Gal(b1-4)GlcNAc): -0.356 | glycan array binding signal (z-score) [14]: -0.363 | glycan array binding signal (z-score) (Kdn(a2-6)Gal(b1-4)GlcNAc): 0.063 | glycan array binding signal (z-score) [15]: -0.366 | glycan array binding signal (z-score) [16]: -0.362 | glycan array binding signal (z-score) (Man(a1-2)Man(a1-3)Man): -0.364 | glycan array binding signal (z-score) [17]: -0.378 | glycan array binding signal (z-score) [18]: -0.369 | glycan array binding signal (z-score) [19]: -0.38 | glycan array binding signal (z-score) [20]: -0.368 | glycan array binding signal (z-score) [21]: -0.368 | glycan array binding signal (z-score) [22]: -0.212 | glycan array binding signal (z-score) (Man(a1-3)[Man(a1-6)]Man): -0.371 | glycan array binding signal (z-score) [23]: -0.056 | glycan array binding signal (z-score) [24]: -0.361 | glycan array binding signal (z-score) [25]: -0.37 | glycan array binding signal (z-score) [26]: -0.35 | glycan array binding signal (z-score) (Man(a1-6)Man): -0.369 | glycan array binding signal (z-score) (Man(b1-4)GlcNAc): -0.36 | glycan array binding signal (z-score) (Neu5Ac(a2-3)Gal): -0.363 | glycan array binding signal (z-score) [27]: -0.365
